From PubChem BioAssay AID504845 (National Center for Advancing Translational Sciences (NCATS), 2011)
Hit rate of the full screen: of about 390,000 compounds, about 150 (0.038%) were called active. The inconclusive results got no clear call from the source; some entries with a clear call stand among them for comparison. Calls follow the shape of the dose curve; as a rule, active = well fitted inhibition curve with a large enough effect; inconclusive = small, poorly fitted or top-dose-only effect; inactive = no such curve, though single readings can be large or run the other way. A potency beside an inconclusive call is a rough fit, not a confirmed value.

These molecules were tested against Regulator of G-protein signaling 4 (Homo sapiens) (UniProt P49798) (assay: Inhibitors of Regulator of G Protein Signaling (RGS) 4: qHTS). Conditions: Transcreener GDP fluorescence polarization, RGS4-accelerated GTP hydrolysis; series mostly up to 114 µM; activity change, negative = inhibition: at the top concentration.
Chain of UniProt P49798 (P49798 whole entry, looked up): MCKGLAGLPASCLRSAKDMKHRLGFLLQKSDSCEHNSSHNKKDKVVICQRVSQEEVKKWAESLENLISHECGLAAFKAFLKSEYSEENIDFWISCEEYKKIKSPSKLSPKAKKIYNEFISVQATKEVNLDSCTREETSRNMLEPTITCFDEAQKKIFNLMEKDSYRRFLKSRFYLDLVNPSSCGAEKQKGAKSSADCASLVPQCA
Method in brief: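 MLSMR compounds (23 nl, pin-transferred) preincubated 10 min at room temperature with a 500nM (2x) first reagent, then RGS4 at 900nM (2x) plus Transcreener GDP mix added; fluorescence polarization (620/688 nm) read before and after 90 min at 30 °C.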
% is scaled to controls: 0 for no effect and ±100 for the full control effect; potency is read from the fitted curve at half-maximal effect; tags tell the direction and shape of the fitted curve.
Also: nearly all actives have a fitted effect of over 75% in size.

| SMILES | Potency | activity change, negative = inhibition |
| --- | --- | --- |
| COCC(C)n1c(SCc2nc(N)nc(Nc3ccccc3C)n2)nc2ccccc2c1=O (centres undefined) | inconclusive: 100 µM [inhibitor, single point] |  |
| Oc1ccc2ccccc2c1C=NCc1cn2ccsc2n1 | inconclusive: 50.1 µM [inhibitor, partial curve, poor fit] |  |
| COC(=O)c1cc2sc(Cl)cc2n1CC(=O)Nc1cc(OC)cc(OC)c1 |  | inactive: 22.8% |
| CCOC(=O)N1CCC(Nc2cc(C)nc3c(-c4ccccc4OC)c(C)nn23)CC1 |  | inactive: 34.7% |
| Cc1cccc(N(C(=O)c2ccco2)C(C(=O)NC2CCCC2)c2ccco2)c1C (centres undefined) |  | inactive: 16.3% |
| O=Cc1cccn1-c1cccc([N+](=O)[O-])c1 | inconclusive: 70.8 µM [inhibitor, single point] |  |
| O=C(c1cc(-c2ccc(Cl)cc2)on1)N1CCCCCC1 | inconclusive: 25.1 µM [inhibitor, full curve, poor fit] |  |
| CCn1c(O)c(/C=C2\C=NN=C2c2ccc(C)cc2)sc1=S | inconclusive: 100 µM [inhibitor, single point] |  |
| Cc1cccn2c(=O)c3cc(C(=O)NCCc4ccccc4)sc3nc12 | inconclusive: 50.1 µM [inhibitor, partial curve, poor fit] |  |
| Cc1ccc(-c2nc(S(=O)(=O)c3ccc(C)cc3)c(SCC(=O)c3ccccc3)o2)cc1 | inconclusive: 50.1 µM [inhibitor, partial curve, poor fit] |  |
| CCCCCC(=O)Cc1cc(O)cc2c1C(=O)Oc1cc(O)c(C(=O)O)c(CCCCC)c1O2 |  | inactive: -20.4% |
| CC(C)Sc1nnc(NC(=O)c2ccc3c(c2)OCO3)s1 |  | inactive: -6.52% |
| CCCn1ccc2c(OCC(=O)Nc3ccc(C(F)(F)F)cc3)cccc2c1=O |  | inactive: -9.37% |
| CCCN(CC(=O)Nc1ccccc1OC)C(=O)Cc1ccc2c(c1)CCC2 | inconclusive: 28.2 µM [inhibitor, full curve, poor fit] |  |
| Cc1c2cccn2cc[n+]1C | inconclusive: 89.1 µM [inhibitor, single point] |  |
| CCOC(=O)N1CCN(CC(=O)Nc2c(C(=O)OC)[nH]c3ccccc23)CC1 |  | inactive: 10.9% |
| Cc1cc(C)c(NC(=O)c2cc3c(nc4sccn43)s2)c(C)c1 | inconclusive: 79.4 µM [inhibitor, partial curve, poor fit] |  |
| CC(C)c1cnc2c(c1SCC(=O)Nc1cccc([N+](=O)[O-])c1)c(=O)n(C)c(=O)n2C | inconclusive: 50.1 µM [inhibitor, partial curve, poor fit] |  |
| Cc1ccc(NC(=S)NNC(=O)CSc2nnc(-c3ccc(Cl)cc3)n2C2CCCCC2)cc1 | inconclusive: 79.4 µM [inhibitor, partial curve, poor fit] |  |
| C=CCc1cc(OC)ccc1OCC(O)CN1CCN(c2ccc(OC)cc2)CC1 (centres undefined) | inactive |  |
| CCOC(=O)Cc1nnc(NC(=O)CSc2nnc3c(n2)[nH]c2ccccc23)s1 | inconclusive: 44.7 µM [inhibitor, partial curve, poor fit] |  |
| COc1ccc(CC(=O)Nc2sc3c(c2C(=O)Nc2ccc(C)cc2)CCCCC3)cc1 | inconclusive: 100 µM [inhibitor, single point] |  |
| Cc1ccc(-c2cc(C(=O)NCCCn3ccnc3)c3cc(Br)ccc3n2)o1 | inconclusive: 79.4 µM [inhibitor, partial curve, poor fit] |  |

| SMILES | Potency | activity change, negative = inhibition |
| --- | --- | --- |
| N#Cc1c(-c2cccs2)nc(SCc2ccc(Cl)cc2)[nH]c1=O | inconclusive: 89.1 µM [inhibitor, single point] |  |
| CCC(=O)Nc1ccccc1C(=O)OC(c1ccccc1)c1ccccc1 |  | inactive: -13.8% |
| Cc1cc(/C=C2\SC(=S)NC2=O)c(C)n1-c1cccc(O)c1 |  | inactive: 7.17% [at 11.4 µM] |
| CCCCSc1nnc2nc(C)cc(C)n12 |  | inactive: 29.5% |
| C=CCn1c(SCC(=O)Nc2cc(Cl)ccc2C(=O)O)nc2sc(C)c(C)c2c1=O | inconclusive: 70.8 µM [inhibitor, single point] |  |
| CCn1c(-c2ccc(-c3ccccc3)cc2)c[nH]c1=S | inconclusive: 100 µM [inhibitor, partial curve, poor fit] |  |
| CC(=O)OC/C=C(C)/C=C/C=C(C)/C=C/C1=C(C)CCCC1(C)C | inconclusive: 1.68 µM [inhibitor, full curve, poor fit] |  |
| O=C(N/N=C/C=C\c1ccco1)c1cccs1 | inconclusive: 100 µM [inhibitor, partial curve, poor fit] |  |
| COCCn1c(C)cc(C2=NNC(=Nc3ccc(F)cc3)SC2)c1C | inconclusive: 79.4 µM [inhibitor, partial curve, poor fit] |  |
| CNC(=O)COC(=O)c1ccc(-c2nc3ccccc3s2)s1 |  | inactive: 3.18% |
| COc1ccc(N2CCN(CC(=O)NCc3ccc(Cl)cc3)CC2)cc1 | inconclusive: 79.4 µM [inhibitor, partial curve, poor fit] |  |
| CCOCCn1c(CN2CCN(c3ccc(F)cc3)CC2)nc2c1c(=O)n(C)c(=O)n2C |  | inactive: -20.6% |
| COc1ccc(CN(CCC(c2ccco2)C(C)C)C(C)=O)cc1OC (centres undefined) | inconclusive: 50.1 µM [inhibitor, partial curve, poor fit] |  |
| CC(=O)c1cccc(NC(=O)c2cc(-c3ccc4c(c3)OCCO4)on2)c1 |  | inactive: 8.39% |
| c1ccn(-c2ccc(-c3ccn[nH]3)cc2)c1 |  | inactive: 13.2% [at 56.9 µM] |
| CC(C)CC1=NN(C(=O)c2ccncc2)C(O)(C(F)(F)F)C1 (centres undefined) | inconclusive: 31.6 µM [inhibitor, full curve, poor fit] |  |
| O=C(O)c1cccc([N+](=O)[O-])c1C(=O)Nc1cccc2ccccc12 | inconclusive: 31.6 µM [inhibitor, partial curve, poor fit] |  |
| COc1ccc(-c2cc(-c3cccs3)c(C#N)c(SCC(=O)NCc3ccco3)n2)cc1 |  | inactive: -0.112% |
| O=S(=O)(NC(=S)NC1CCCCC1)c1ccc(Br)cc1 |  | inactive: -18.9% |
| Cc1cccc(-c2ocnc2C(=O)N2CCN(C(=O)c3cccs3)CC2)c1 |  | inactive: -8.54% |
| O=C(/C=C/c1ccc(Br)cc1)N1CCN(Cc2ccccc2)CC1 |  | inactive: 6.39% |
| COc1ccc(Nc2cc(C)nc3ccc(OC)cc23)cc1 |  | inactive: -4.4% |
| COc1ccc(N(C)C(=O)c2cc3c(s2)-c2ccccc2OC3)c(OC)c1 | inconclusive: 79.4 µM [inhibitor, partial curve, poor fit] |  |

| SMILES | Potency | activity change, negative = inhibition |
| --- | --- | --- |
| CCOC(=O)c1c2n(c3c(NCc4ccccc4)ncnc13)CCCC2 | inconclusive: 89.1 µM [inhibitor, single point] |  |
| Cc1ccc(CN(Cc2cccnc2)C(=O)CN2C(=O)COc3ccccc32)o1 | inconclusive: 79.4 µM [inhibitor, partial curve, poor fit] |  |
| COc1cccc2sc(N3CCN(C(=O)c4cccs4)CC3)nc12 | inconclusive: 89.1 µM [inhibitor, single point] |  |
| O=[N+]([O-])c1cnc(Sc2ccncn2)s1 | inconclusive: 50.1 µM [inhibitor, partial curve, poor fit] |  |
| Cc1[nH]c2ccccc2c1/C=N/NC(=O)c1cc(C(C)(C)C)[nH]n1 |  | inactive: 7.25% |
| S=C(NNC(=S)Nc1ccccc1)Nc1ccccc1 | inconclusive: 50.1 µM [inhibitor, partial curve, poor fit] |  |
| N#Cc1c(NC(=O)CSc2ncnc3sccc23)oc(-c2ccco2)c1-c1ccco1 | inconclusive: 56.2 µM [inhibitor, partial curve, poor fit] |  |
| Cc1ccc(NC(CNS(=O)(=O)c2ccc(Cl)cc2)c2ccccc2)cc1 (centres undefined) | inactive |  |
| O=C1NC(=O)/C(=C/c2ccc(-c3ccc(F)cc3O)o2)S1 | active: 21.2 µM |  |
| S=c1nc(C2CC2)[nH]c2ccccc12 | inconclusive: 44.7 µM [inhibitor, partial curve, poor fit] |  |
| O=C(O)c1ccc(-c2nc(-c3cccc(C(F)(F)F)c3)cs2)cc1 |  | inactive: 5.98% |
| COC(=O)C1=C(C)N(CCC2=CCCCC2)C(=O)C1 | inconclusive: 35.5 µM [inhibitor, partial curve, poor fit] |  |
| COc1ccccc1NC(=O)C1CCCN(S(=O)(=O)c2cccc3nsnc23)C1 (centres undefined) | inconclusive: 89.1 µM [inhibitor, single point] |  |
| CCN(CC)CCn1c(NCc2cc(OC)ccc2OC)nc2ccccc21 | inconclusive: 39.8 µM [inhibitor, partial curve, poor fit] |  |
| CC(=O)NNc1nc(-c2ccccc2)cs1 | inconclusive: 79.4 µM [inhibitor, partial curve, poor fit] |  |
| CC(=O)Nc1ccc(NC(=O)c2cccc(S(=O)(=O)N3CCCCCC3)c2)cc1 |  | inactive: -2.93% |
| Cc1ccc(-n2c(=O)c3ccc(C(=O)NCc4ccccc4Cl)cc3n(CC(N)=O)c2=O)cc1 | inconclusive: 100 µM [inhibitor, partial curve, poor fit] |  |
| COCCN1C(=O)C(=O)/C(=C(/O)c2ccc3c(c2)OCCO3)C1c1ccc(C(=O)OC)cc1 (centres undefined) |  | inactive: 0.498% |
| COCCNc1nc(-c2cc(C)n(CCc3ccc(OC)cc3)c2C)cs1 | inconclusive: 70.8 µM [inhibitor, partial curve, poor fit] |  |
| O=C(CCN1C(=O)/C(=C\c2ccco2)SC1=S)Nc1ccc(C(=O)O)c(O)c1 | inconclusive: 44.7 µM [inhibitor, partial curve, poor fit] |  |
| Cc1ccc(C2=NC3(CCCC3)N=C2SCC(=O)Nc2ccc3c(c2)OCCO3)cc1 |  | inactive: -32% |
| O=S(=O)(NCC(c1cccs1)S(=O)(=O)c1ccccc1)c1ccc(F)c(C(F)(F)F)c1 (centres undefined) |  | inactive: 15.8% |
| O=C(O)C1Nc2ccc(Br)cc2C2C=CCC12 (centres undefined) | inconclusive: 79.4 µM [inhibitor, partial curve, poor fit] |  |
